The record followed here is publication PMC4336329 (PLoS ONE, 2015).

About 14,000 (4.5%) of roughly 310,000 compounds showed an effect of 50% or more. Effects have a minus sign here. Some of the results follow.
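Also: peak tail current of the secondary pulse compared with the same well before compound.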

Chain of human ether-à-go-go-related gene (hERG) potassium channel (Q12809 whole entry, looked up): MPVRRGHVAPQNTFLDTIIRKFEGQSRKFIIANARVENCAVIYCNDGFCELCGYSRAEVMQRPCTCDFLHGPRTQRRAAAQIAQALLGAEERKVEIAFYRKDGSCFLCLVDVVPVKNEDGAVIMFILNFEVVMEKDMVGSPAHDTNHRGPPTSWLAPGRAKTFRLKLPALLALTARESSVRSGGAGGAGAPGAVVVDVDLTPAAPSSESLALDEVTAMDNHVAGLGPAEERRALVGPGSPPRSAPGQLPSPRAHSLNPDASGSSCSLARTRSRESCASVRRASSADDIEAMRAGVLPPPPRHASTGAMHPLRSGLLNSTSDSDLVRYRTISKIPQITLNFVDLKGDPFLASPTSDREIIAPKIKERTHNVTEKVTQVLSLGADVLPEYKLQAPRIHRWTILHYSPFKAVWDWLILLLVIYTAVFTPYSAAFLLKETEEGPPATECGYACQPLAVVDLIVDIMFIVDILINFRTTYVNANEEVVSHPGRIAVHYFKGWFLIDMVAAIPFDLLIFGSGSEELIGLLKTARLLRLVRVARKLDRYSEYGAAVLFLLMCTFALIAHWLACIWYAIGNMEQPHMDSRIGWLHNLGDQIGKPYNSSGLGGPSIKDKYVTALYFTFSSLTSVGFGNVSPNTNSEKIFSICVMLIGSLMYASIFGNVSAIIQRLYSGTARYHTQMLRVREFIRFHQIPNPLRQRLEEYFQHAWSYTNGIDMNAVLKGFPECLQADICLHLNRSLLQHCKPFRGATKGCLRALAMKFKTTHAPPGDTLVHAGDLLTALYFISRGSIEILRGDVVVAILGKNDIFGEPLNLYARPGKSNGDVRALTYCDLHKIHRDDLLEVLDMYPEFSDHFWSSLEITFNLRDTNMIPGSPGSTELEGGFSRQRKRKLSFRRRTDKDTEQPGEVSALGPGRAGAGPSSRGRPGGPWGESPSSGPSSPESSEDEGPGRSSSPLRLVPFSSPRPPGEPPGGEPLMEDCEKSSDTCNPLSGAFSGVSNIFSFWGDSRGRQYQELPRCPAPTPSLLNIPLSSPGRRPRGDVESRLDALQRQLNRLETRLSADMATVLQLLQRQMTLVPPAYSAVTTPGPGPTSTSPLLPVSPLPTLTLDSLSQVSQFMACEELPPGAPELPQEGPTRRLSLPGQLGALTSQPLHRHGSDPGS

The test has as its target human ether-à-go-go-related gene (hERG) potassium channel (human, UniProt Q12809). The test is described as follows: primary screen, population patch clamp on CHO cells stably expressing hERG.
As to `O=C(CSc1nc2ccccc2n1CC(=O)N1CCCC1)Nc1nccs1`, the “hERG current change (%, negative = inhibition) at 10uM” value is listed as -18.5%. Under `Cc1ccc(S(=O)(=O)NC(=O)Nc2ccc(OC(F)F)cc2)cc1` stands -3.1%; under `Cn1nnnc1NCc1ccccc1F`, 4.52%.

For `COC(=O)C1=C(C(=O)OC)[C@@H]2N(C)c3ccc(OC)cc3[C@@]23C[C@@H](C(=O)OC)N(C(=O)COCc2ccccc2)C3=N1`, the “hERG current change (%, negative = inhibition) at 10uM” value is -55%.

Regarding `NC(=O)[C@@H]1CC2(CC(c3cccc(NC(=O)[C@H]4CCC(=O)N4)c3)=NO2)CN1C(=O)c1ccc(Cl)cc1` (some centres unmarked), the “hERG current change (%, negative = inhibition) at 10uM” value is recorded as 1.1%. To `COc1ccc(N=Cc2c(O)[nH]c3ccccc23)cc1OC` belongs -22.4%; to `Cc1ccccc1CSc1nc2c(c(=O)[nH]1)CCCC2`, 2.17%. To `CCCCn1c(N)c(N(CCOC)C(=O)c2ccc(-c3ccc(Cl)cc3)o2)c(=O)[nH]c1=O` belongs 9.18%; to `CCn1c(=O)cc(SCC(=O)N2CCN(c3ccccc3OC)CC2)c2ccccc21`, -52%. To `CCCN(CCC)CCNC(=O)C(NS(=O)(=O)c1ccc2c(c1)CCC(=O)N2)c1ccccc1` (centres unmarked) belongs -4.89%. Consider `CS(=O)(=O)c1ccc(-c2nnc(NC(=O)C3=COCCO3)o2)cc1`, for which the “hERG current change (%, negative = inhibition) at 10uM” value is listed as -6.41%. To `O=C(c1ccc(Cl)nc1)N1CCC(Cc2ccccc2)CC1` belongs -19.8%; to `CCn1cc(C(=O)NC(C)C2CC3CCC2C3)cn1` (centres unmarked), 1.48%; to `S=C(NC1CCCCC1)N1CCN(c2ncccn2)CC1`, 9.57%.

With `COc1ccccc1NC(=O)c1ccc(C(=O)Nc2ccccc2OC)nc1`, the “hERG current change (%, negative = inhibition) at 10uM” value was found to be 24.8%. Under `CN(C)CCCNC(=O)C(=O)NCC(c1cccs1)S(=O)(=O)c1ccc(F)cc1` (centres unmarked) stands 9.5%; under `COCCNC(=O)CSc1nc2sccc2c(=O)n1-c1ccccc1`, 15.3%; under `O=C(NC(=S)N1C[C@H]2C[C@H](C1)c1cccc(=O)n1C2)c1ccc(Cl)cc1Cl`, -1.16%. To `COC(=O)c1cc(S(=O)(=O)NCc2ccccc2Cl)c[nH]1` belongs 17.1%. To `Cl.Clc1ccc(CN2C3=NCCCN3c3ccccc32)cc1Cl` belongs -76.3%; to `Cc1cc(NC(=O)CSc2nnc(C3CC3)n2Cc2ccccc2)no1`, -8.63%; to `O=C(Nc1ccc2c(c1)OCCO2)c1ccncc1`, 7.56%.

As to `CN1CCN(c2ccc(NC(=O)Oc3ccccc3)cc2)CC1`, the “hERG current change (%, negative = inhibition) at 10uM” value is listed as 17.4%. Under `CC(=O)N1CCN(S(=O)(=O)c2cccc(C(=O)OCc3cccc(F)c3)c2)CC1` stands -17.2%. On to `CCC(C)(C)n1nnnc1CN1CCN(c2nc3cc(OC)ccc3cc2C#N)CC1`, for which the “hERG current change (%, negative = inhibition) at 10uM” value is -5.99%.

As for `O=C1CN(C(=O)CCCc2c[nH]c3ccccc23)c2ccccc2N1`, the “hERG current change (%, negative = inhibition) at 10uM” value is reported as 1.84%.

For the molecule `O=C(N/N=C/c1ccc(OC(=O)c2ccco2)cc1)c1ccc[n+]([O-])c1`, the “hERG current change (%, negative = inhibition) at 10uM” value turned out to be 17.2%. To `CCOC(=O)Nc1ccc2nc3n(c(=O)c2c1)CCCCC3` belongs 7.45%.

Consider `O=C(O)[C@H]1C[C@@H]1[C@H](NP(=O)(c1ccccc1)c1ccccc1)c1ccccc1`, for which the “hERG current change (%, negative = inhibition) at 10uM” value came to 29%. With `CN1C(=O)/C(=C/c2ccc3c(c2)OCO3)N=C1c1ccccc1`, the “hERG current change (%, negative = inhibition) at 10uM” value turned out to be 22.9%. For the molecule `CCCOc1ccc(/C(O)=C2/C(=O)C(=O)N(CCN(C)C)C2c2ccncc2)cc1` (centres unmarked), the “hERG current change (%, negative = inhibition) at 10uM” value was found to be 12.8%. To `COc1ccc(C(C)=O)cc1COC(=O)c1cc(=O)c2ccccc2o1` belongs -3.98%; to `CCN(CC)CCNC(=O)C(Oc1ccccc1)Oc1ccccc1`, -65.4%; to `CCOc1cc(NS(=O)(=O)c2ccc(OC)cc2)c(OCC)cc1NC(C)=O`, -9.78%. To `Cc1cc(C)cc(OCC(=O)N2CCc3ccccc3C2)c1` belongs 4.55%; to `O=C(COC(=O)CCCSc1nc2ccccc2[nH]1)Nc1ccc(Oc2ccccc2)cc1`, 6.08%; to `COc1ccccc1CNC(=O)C/C(C)=N/NC(=O)COc1ccc(C)cc1Br`, -63.9%. Under `O=C(CN1C(=O)CSc2ccccc21)N/N=C/c1ccco1` stands 4.07%. As for `Cc1ccccc1NC(=O)c1ccc(C)c(S(=O)(=O)NCc2cccnc2)c1`, the “hERG current change (%, negative = inhibition) at 10uM” value amounted to 7.35%. `CCN1CCCC1CNC(=O)c1cc2ccc(OC)cc2[nH]1` (centres unmarked): the “hERG current change (%, negative = inhibition) at 10uM” value was -12.4%. Under `COc1ccc(NC(=O)c2c(N)no[n+]2[O-])cc1` stands -6.52%; under `O=C(c1ccccc1S(=O)(=O)NCC(O)COc1ccc([N+](=O)[O-])cc1)N1CCCCC1` (centres unmarked), -56.8%. Under `COc1ccc(CNC(=O)C(c2ccc(C)cc2)N(Cc2cccs2)C(=O)c2ccc3c(c2)OCCO3)cc1` (centres unmarked) stands 15.6%; under `COc1cc2c(cc1OC)CN(C(=O)c1cccc([N+](=O)[O-])c1)CC2`, 4.01%; under `O=C1NC(=O)C(CCc2ccncc2)(C2CCCCC2)C(=O)N1`, 5.77%. To `CCOc1ccc(-c2csc(NC(=O)c3ccc(S(=O)(=O)N4CCc5ccccc5C4)cc3)n2)cc1` belongs 14%. For `Cc1coc2c(C)c3oc(=O)c(CCC(=O)N4CCC(C(=O)NCCCC(=O)O)(c5ccccc5)CC4)c(C)c3cc12`, the “hERG current change (%, negative = inhibition) at 10uM” value was 8.75%.

`C=CCn1c(O)c(C(CC)=NCc2ccc3c(c2)OCO3)c(=O)[nH]c1=O`: the “hERG current change (%, negative = inhibition) at 10uM” value is listed as 3.09%. Under `O=C(Cc1cccs1)NCc1ccccc1` stands 1.94%.

Regarding `CC1CCCCN1C(=O)Cn1c(=O)oc2cc(S(=O)(=O)N3CCCCC3)ccc21` (centres unmarked), the “hERG current change (%, negative = inhibition) at 10uM” value was 8.43%. To `CCN(Cc1ccccc1)C(=O)CCS(=O)(=O)c1ccc2c(c1)n(C)c(=O)c(=O)n2C` belongs -15%. To `O=C(CCl)Nc1c2c(nn1-c1ccccc1)CSC2` belongs -15.8%; to `COc1ccc(S(=O)(=O)NNC(=O)c2sccc2-n2cccc2)cc1`, 2%; to `CCc1ccccc1NC(=S)Nn1cnnc1`, 13.6%. Under `C=CCn1c(SCC(=O)Nc2cc(C)cc(C)c2)nnc1-c1cnccn1` stands -29.6%; under `Cc1cc(N2CCCCC2C)nc(-c2ccccc2O)n1` (centres unmarked), -38.3%; under `COc1ccc(C2=NS(=O)(=O)N(C)C(C(=O)NC3CCCCC3)=C2)cc1`, 8.66%. As to `Cn1c(SCc2cccnc2)nc2cccnc21`, the “hERG current change (%, negative = inhibition) at 10uM” value was -0.229%. Under `COC(=O)Nc1c(-c2ccccc2)nc2ccc(C)cn12` stands 4.52%. Under `COc1ccccc1NC(=O)Nc1cccc(C(=O)O)c1` stands 17.5%; under `CCc1sc(N(C(=O)Cc2ccccc2)c2ccccc2F)nc1-c1ccc(C)cc1`, 30.7%. As for `C=C(C)C1CCC2(C(=O)O)CCC3(C)C(CCC4C5(C)C(C=O)C(O)C(C)(C)C5CCC43C)C12` (centres unmarked), the “hERG current change (%, negative = inhibition) at 10uM” value is -8.26%. To `COc1cc(OC)c(C(=O)OCC(=O)Nc2c(C)n(C)n(-c3ccccc3)c2=O)cc1OC` belongs 11.6%.

In the case of `COc1ccc(NC(=S)N(CCN(C)C)Cc2cccs2)cc1`, the “hERG current change (%, negative = inhibition) at 10uM” value is reported as -33.9%. Under `O=C(NNC(=O)C(c1ccccc1)c1ccccc1)c1ccccn1` stands -1.81%; under `Cc1[nH]c2ccccc2c1N=Nc1ccccc1C(=O)O`, 13.8%; under `COc1ccc2oc(C(=O)OCC(=O)N(C)c3ccccc3)c(C)c2c1`, 16.9%.

For the molecule `Cc1cc(OCC(=O)NCC2CCC(C(=O)O)CC2)c2c(C)c(Cc3ccccc3)c(=O)oc2c1` (centres unmarked), the “hERG current change (%, negative = inhibition) at 10uM” value stood at 1.25%. On to `Cc1ccc(NC(=O)C(C)Sc2nnc(C)n2C)cc1` (centres unmarked), for which the “hERG current change (%, negative = inhibition) at 10uM” value was -2.87%. Under `CC(C)C(NS(=O)(=O)c1ccccc1)C(=O)N1CCN(C(=O)c2ccco2)CC1` (centres unmarked) stands 7.3%; under `CSc1ccc(S(=O)(=O)N(CC(=O)NCc2ccccn2)c2ccc(C)cc2)cc1`, -59.3%; under `CCN(CC)CCNCC(=O)N1c2ccccc2CCc2ccc(NC(=O)OC)cc21.Cl`, 17%. Under `Cc1ccc2c(c1)C(c1ccc(F)cc1)N(C(=O)c1ccccc1Br)CC(=O)N2` (centres unmarked) stands -16.1%; under `C/C(=N\N=C(/N)SC1CC(=O)N(c2ccccc2)C1=O)c1cccs1` (centres unmarked), -0.317%; under `OC(COc1ccc(OCc2ccccc2)cc1)CN1CCCCC1` (centres unmarked), -39.6%.

With `CCOC(=O)/C=C/C(=O)Nc1ccc(S(=O)(=O)N2CCCCCC2)cc1`, the “hERG current change (%, negative = inhibition) at 10uM” value was found to be 20.7%. As to `CCCCCn1c(SCCOCC)nc2c1c(=O)[nH]c(=O)n2C`, the “hERG current change (%, negative = inhibition) at 10uM” value is given as -46.8%. Under `Cc1cccc(OCc2nnc(SCC(=O)N3CCCC3)n2C)c1` stands -5.79%; under `CCS(=O)(=O)c1ccc2c(c1)N(S(C)(=O)=O)CC(C(=O)NC1CC1)O2` (centres unmarked), 21.3%.

With `CN(CC(=O)Nc1cccc2ccccc12)C(=O)/C=C/c1cccs1`, the “hERG current change (%, negative = inhibition) at 10uM” value is on record as -10.7%. Under `O=C(COC(=O)COc1ccc(Cl)cc1)NCCNC(=O)COC(=O)COc1ccc(Cl)cc1` stands 9.54%.

On to `CCCN(C(=O)Cn1nc(C)c([N+](=O)[O-])c1C)c1c(N)n(Cc2ccccc2)c(=O)[nH]c1=O`, for which the “hERG current change (%, negative = inhibition) at 10uM” value is 16.5%. Turning to `Cc1cccc(Sc2nc(-c3ccccc3)ncc2C(=O)O)c1`, the “hERG current change (%, negative = inhibition) at 10uM” value was 11.7%.

As for `O=S(=O)(c1ccc2c(c1)CCCN2)N1CCCC1`, the “hERG current change (%, negative = inhibition) at 10uM” value is recorded as -7.95%. In the case of `Cc1ccc(C2(C)NC(=O)N(CC(=O)NC(C)c3ccccc3)C2=O)cc1` (centres unmarked), the “hERG current change (%, negative = inhibition) at 10uM” value came to 11.7%. Regarding `Cc1cc(=O)[nH]c(N/N=C/c2ccc3c(c2)OCCO3)n1`, the “hERG current change (%, negative = inhibition) at 10uM” value was found to be 6.88%.
